Measurements reported in PubChem BioAssay AID463173 (ICCB-Longwood Screening Facility, Harvard Medical School, 2010).
Screen size: about 52,000 compounds; about 1,700 (3.3%) were called active. Cut-off read from the data, not from the text of the source: active = survival mostly below about 52% (no sharp cut-off); inactive = mostly above about 56%. The list shows a part of the results.

These compounds were tested on Wild type (assay: S. aureus survival, RN4220 and DeltatarO strains – OD600, teichoic acid synthesis inhibitors, primary screen (AID 463173)). Details: S. aureus RN4220 wild type/DeltatarO growth, OD600, 18 h, stronger effect = lower value, screened at 18.75 µg/mL (by protocol).
In the case of COc1ccccc1OCCn1cc(C(=O)c2cccs2)c2ccccc21, the survival was inactive: 102%.
In the case of O=C(c1cc2c(=O)oc3ccccc3c2s1)N1CCN(c2cccc(Cl)c2)CC1, the survival was inactive: 145%.
With COc1ccc(Cl)cc1NC(=O)Cn1ccn(Cc2ccc(C)cc2)c(=O)c1=O the survival was inactive: 69%.
Cc1cccc(-n2c(SCC(N)=O)nc3c(oc4ccccc43)c2=O)c1 was tested, and the survival was inactive: 75%.
CCOC(=O)N1CCN(C(=O)CN(c2cccc(Cl)c2C)S(=O)(=O)c2ccc(C)cc2)CC1 was tested, and the survival was inactive: 115%.
For O=C(Nc1ccccc1)c1cccc2c(=O)c3c([nH]c12)CCCC3, the survival was inactive: 77%.
For Cn1c(SCc2ccc(F)cc2)nc2ccc(C(=O)NCc3ccc(F)cc3)cc21, the survival was inactive: 55%.
In the case of Cc1nn(CC(=O)NC2CC2)c(=O)c2cc3ccccc3n12, the survival was inactive: 86%.
In the case of O=C(Nc1ccccc1NC(=O)c1cccs1)c1cccs1, the survival was inactive: 111%.
For CCN(CC)CCN(C(=O)c1ccco1)c1nc2ccc(Cl)cc2s1, the survival was inactive: 87%.
For COCCn1c(SCC(=O)c2cc(C)ccc2C)nc2cc(C(=O)NC3CCCC3)ccc2c1=O, the survival was inactive: 55%.
In the case of Cc1cc(C)cc(NC(=O)c2cc(S(=O)(=O)N3CCCCCC3)cn2C)c1, the survival was inactive: 77%.
In the case of Cc1ccc(-n2nc3c(N4CCC(C(=O)NC(C)C)CC4)nnc(C)c3c2C)cc1, the survival was inactive: 143%.
With CCC(Sc1nc(N)cc(=O)[nH]1)C(=O)Nc1ccccc1C#N (centres undefined) the survival was inactive: 97%.
In the case of Cc1ccc(C2Nc3ccccc3-n3c(-c4ccccc4)c4c(=O)n(C)c(=O)n(C)c4c32)o1 (centres undefined), the survival was inactive: 74%.
For CC1CCCCN1C(=O)c1ccc(S(=O)(=O)NCc2cccnc2)cc1 (centres undefined), the survival was inactive: 111%.
Cc1ccc(NC(=O)Cn2c(-c3ccc4c(c3)OCO4)cn(-c3ccccc3)c2=O)cc1C was tested, and the survival was inactive: 76%.
In the case of Cc1cccc(NC(=O)Cn2cc(CO)c3ccccc32)c1, the survival was inactive: 115%.
With CCC1CN(C(=O)N2CCC(C(=O)NCc3ccc(OC)cc3OC)CC2)c2cc(C)ccc2O1 (centres undefined) the survival was inactive: 85%.
For CCOc1ccc(-c2nc(SC(C(C)=O)C(=O)N(C)C)c3c(=O)n(C)c(=O)n(C)c3n2)cc1 (centres undefined), the survival was inactive: 68%.
With Cc1c(Cl)cccc1-n1ncc(C(=O)Nc2ccc3c(c2)OCCO3)c1C1CCN(C(=O)OC(C)(C)C)CC1 the survival was inactive: 99%.
With O=C(NC1CCSC1=O)C1CCCCC1 (centres undefined) the survival was inactive: 109%.
With CCc1ccc(NC(=O)c2ccc3c(c2)nnn3CC)cc1 the survival was active: -6%.
In the case of Cc1ccc2cc3cc(C(=O)Nc4ccc(F)cc4Cl)oc3nc2c1, the survival was inactive: 82%.
Cc1ccccc1OCC(=O)OCc1cc(=O)n2ccsc2n1 was tested, and the survival was inactive: 82%.
For CCN(CC)S(=O)(=O)c1ccc2c(c1)N(CC(=O)N1CCN(c3cccc(C(F)(F)F)c3)CC1)C(=O)CO2, the survival was inactive: 54%.
With CCOC(=O)c1c(-n2cnnn2)sc(C)c1C the survival was inactive: 111%.
In the case of COc1ccc(N2CCN(C(=O)c3nc(-c4ccc(Cl)cc4)n4c3CCCCC4)CC2)cc1, the survival was inactive: 68%.
With Cc1ccc(Cl)cc1N1CCN(CCNC(=O)Nc2ccc(Cl)cc2)CC1 the survival was active: -6%.
In the case of O=C(C1CCN(S(=O)(=O)c2cccc3nonc23)CC1)N1CCN(c2ccccc2)CC1, the survival was inactive: 82%.
With COc1ccc(NC(=O)c2nnn(Cc3ccc(Br)cc3F)c2N)c(OC)c1 the survival was inactive: 88%.
With CCOc1ccc(CNC(=O)c2ccc(CS(=O)c3ccccc3)o2)cc1 (centres undefined) the survival was inactive: 87%.
With CS(=O)(=O)N1CCc2cc(C(=O)N3CCN(c4ccc(F)cc4)CC3)ccc21 the survival was inactive: 89%.
Cc1ccc2nc(SCC(=O)N3CCCCC3)c(C#N)cc2c1 was tested, and the survival was inactive: 111%.
With CC(=O)N1CCCc2ccc(NS(=O)(=O)c3ccc(F)cc3F)cc21 the survival was inactive: 64%.
For Cc1ccccc1NC(=O)Cn1nc(-c2ccc(F)cc2)c2cnc3ccccc3c21, the survival was inactive: 19%.
Cc1ccc(-n2c(SCC(=O)Nc3cccc(Cl)c3)nc3n[nH]c(C)c3c2=N)cc1 was tested, and the survival was inactive: 85%.
Cc1ccc(N2CC(NC(=O)c3ccc4c(c3)OCO4)CC2=O)cc1 (centres undefined) was tested, and the survival was inactive: 70%.
For CC(C)c1ccc(Nc2c(-c3ccccc3O)nc3cnccn23)cc1, the survival was inactive: 61%.
Cc1cc(N2CCC(C)CC2)nc2ccc(NC(=O)/C=C/c3cccc(Cl)c3)cc12 was tested, and the survival was inactive: 69%.
In the case of CCOc1ccc(-c2c(C)nn3c(C)c(C(=O)NCc4ccc(C)o4)cnc23)cc1OCC, the survival was inactive: 90%.
O=C(NCCc1ccc(Cl)cc1)c1ccc(CS(=O)(=O)Cc2ccccc2F)o1 was tested, and the survival was active: -3%.
In the case of CC(=O)N1CCc2c(sc3c2c(=O)n(-c2ccc(C)cc2)c(=O)n3CC(=O)Nc2ccccc2)C1, the survival was inactive: 122%.
Cn1c(Oc2ccc(F)cc2)nc2c1c(=O)n(Cc1ccccc1Cl)c(=O)n2C was tested, and the survival was inactive: 78%.
In the case of Cc1ccc2nc(NC(=O)c3cc(=O)c4cc(Cl)ccc4o3)sc2c1, the survival was inactive: 76%.
With CCc1ccccc1NC(=O)CSc1nnc(CC)c(CC)n1 the survival was inactive: 74%.
With CSc1ccc(CNC(=O)c2cc3c(=O)n(Cc4ccco4)ccc3nc2C)cc1 the survival was inactive: 128%.
In the case of COc1ccccc1NC(=O)c1c(NC(=O)c2ccccc2F)sc2c1CCC2, the survival was inactive: 115%.
With COc1ccc(C(c2nnnn2CC2CCCO2)N2CCN(c3ccc(F)cc3)CC2)cc1OC (centres undefined) the survival was inactive: 100%.
With COC(=O)c1c(NC(=O)c2ccccc2C(=O)O)sc2c1CCCC2 the survival was inactive: 110%.
COc1ccc(Cn2ccc3nc(C)c(C(=O)Nc4ccc(C)c(F)c4)cc3c2=O)cc1 was tested, and the survival was inactive: 47%.
For Cc1ccc(-c2cc(C(=O)NCc3ccccc3)c3c(-c4ccc(C)cc4)[nH]nc3n2)cc1, the survival was inactive: 75%.
With Cc1c(Cl)cccc1NC(=O)Cn1nc(C)c2sc3ccccc3c2c1=O the survival was inactive: 87%.
Cc1ccc(C)c(S(=O)(=O)c2nnn3c2nc(Nc2ccc(F)c(Cl)c2)c2sccc23)c1 was tested, and the survival was inactive: 38%.
Cc1nc(SCC(=O)Nc2ccc(Br)cc2)[nH]c(=O)c1Cc1ccccc1 was tested, and the survival was inactive: 48%.
With COc1ccc(N2CCN(C(=O)c3ccc4c(c3)CCN4S(C)(=O)=O)CC2)cc1 the survival was inactive: 92%.
With CCSc1nc2c(c(=O)[nH]c(=O)n2C)n1CC(O)COc1ccc(Cl)cc1 (centres undefined) the survival was inactive: 161%.
With CCCCOC(=O)c1ccc(NC(=O)Cc2coc3ccc(C(C)C)cc23)cc1 the survival was inactive: 88%.
Nc1nc(NC(=O)CCC(=O)O)nn1-c1ccccc1 was tested, and the survival was inactive: 105%.
For Cc1ccc2c(c1)N(C(=O)N1CCC(C(=O)NCc3ccco3)CC1)CC(C)O2 (centres undefined), the survival was inactive: 98%.
In the case of Cc1ccc(S(=O)(=O)CCC(=O)N2CCN(c3nc4c(C)c(Cl)ccc4s3)CC2)cc1, the survival was inactive: 68%.
With CCc1ccc(OCC(=O)NCc2nc(-c3cccc(C)c3)no2)c(Br)c1 the survival was inactive: 117%.
For Cc1cccc(C(=O)Nc2nc(-c3ccc(Br)cc3)ns2)c1, the survival was inactive: 83%.
COc1cc(C(=O)N2CCc3c([nH]c4ccccc34)C2c2ccccc2)cc(OC)c1OC (centres undefined) was tested, and the survival was inactive: 54%.
For COc1ccccc1OCCn1c(-c2ccc(Br)cc2)nc2ccccc2c1=O, the survival was inactive: 80%.
In the case of Cc1cccc(N(CC(=O)NCCSc2ccc(Cl)cc2)S(=O)(=O)c2ccccc2)c1C, the survival was inactive: 75%.
CCOC(=O)C1CCN(C(=O)Cn2ncc3c([nH]c4ccc(C)cc43)c2=O)CC1 was tested, and the survival was inactive: 71%.
For CC(=O)N1CCC2(CC1)OC(=O)C(C)=C2C(=O)Nc1ccccc1C(F)(F)F, the survival was inactive: 88%.
O=C(CNCC1CCCO1)Nc1ccccc1-n1cccc1 (centres undefined) was tested, and the survival was inactive: 108%.
With CSc1ncc(C(=O)N2CCN(c3ccc(F)cc3)CC2)c(C)n1 the survival was inactive: 88%.
With CCOC(=O)C1CCC(CN(Cc2c(Cl)cccc2Cl)S(=O)(=O)c2ccc(F)cc2)CC1 (centres undefined) the survival was inactive: 49%.
With Cc1ccc(C)c(N2CCN(C(=O)c3cc(S(=O)(=O)N4CCCC4)cn3C)CC2)c1 the survival was inactive: 86%.
For COc1cccc(-c2nn(C)c3sc(C(=O)N4CCN(c5cccc(C)c5)C(C)C4)cc23)c1 (centres undefined), the survival was inactive: 72%.
For COc1ccccc1CCNC(=O)Cn1ccc2cc(S(=O)(=O)N3CCCCCC3)ccc21, the survival was inactive: 76%.
With CCc1nnc(SCc2nc(-c3ccc(OC)cc3)oc2C)c2cc3sccc3n12 the survival was inactive: 86%.
With Cc1ccc(OCCCCn2c(CCNC(=O)C(C)(C)C)nc3ccccc32)cc1 the survival was inactive: 76%.
In the case of Cc1ccccc1NC(=O)CN1C(=O)CCn2nc(-c3cccn3C)cc21, the survival was inactive: 59%.
With Cc1sc2c(c1C)c(=O)n(-c1cccc(C(F)(F)F)c1)c(=O)n2Cc1ccccc1C#N the survival was inactive: 124%.
With CCn1cc(C(=O)NCc2ccccc2Cl)c(=O)c2cc(S(=O)(=O)N3CCCCC3)ccc21 the survival was inactive: 80%.
CCOc1ccc(N(CC)C(=O)CSc2n[nH]c(-c3ccccc3)n2)cc1 was tested, and the survival was inactive: 67%.
In the case of CC(=O)Nc1ccc(C(=O)NCCN2CCOCC2)cc1, the survival was inactive: 103%.
With Cc1ncc(CO)c2c1Oc1nc(-c3ccccc3)nc(SCC(=O)Nc3cccc(C(F)(F)F)c3)c1C2 the survival was inactive: 110%.
O=C(CSc1n[nH]c(-c2ccccc2Cl)n1)N1CCN(c2ccccc2F)CC1 was tested, and the survival was inactive: 123%.
With COc1ccc(-c2coc3c2c(C)cc2oc(=O)cc(C)c23)cc1 the survival was inactive: 83%.
In the case of Cc1oc(-c2ccc(C(=O)NCc3ccccc3)cc2)nc1CS(=O)(=O)c1ccccc1, the survival was inactive: 75%.
For O=C(NC1CCCC1)c1ccc2c(c1)N(Cc1ccccc1F)C(=O)c1ccccc1S2, the survival was inactive: 68%.
With O=C(Cc1ccccc1)Nc1cccc(-c2nc3cccnc3s2)c1 the survival was inactive: 93%.
With CC1=C(C(=O)Nc2cccnc2)C(c2ccccc2)n2nc(SCc3ccccc3F)nc2N1 (centres undefined) the survival was inactive: 146%.
For Nc1ccc(-c2ccc(N)cc2C(F)(F)F)c(C(F)(F)F)c1, the survival was inactive: 117%.
